Measured values: PMC4336329 (PLoS ONE, 2015)
About 14,000 (4.5%) of roughly 310,000 compounds showed an effect of 50% or more. Effects have a minus sign here. Some of the results follow.

target: human ether-à-go-go-related gene (hERG) potassium channel (human, UniProt Q12809); assay: primary screen, population patch clamp on CHO cells stably expressing hERG
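Further: peak tail current of the secondary pulse compared with the same well before compound.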

Chain of human ether-à-go-go-related gene (hERG) potassium channel (Q12809 whole entry, looked up): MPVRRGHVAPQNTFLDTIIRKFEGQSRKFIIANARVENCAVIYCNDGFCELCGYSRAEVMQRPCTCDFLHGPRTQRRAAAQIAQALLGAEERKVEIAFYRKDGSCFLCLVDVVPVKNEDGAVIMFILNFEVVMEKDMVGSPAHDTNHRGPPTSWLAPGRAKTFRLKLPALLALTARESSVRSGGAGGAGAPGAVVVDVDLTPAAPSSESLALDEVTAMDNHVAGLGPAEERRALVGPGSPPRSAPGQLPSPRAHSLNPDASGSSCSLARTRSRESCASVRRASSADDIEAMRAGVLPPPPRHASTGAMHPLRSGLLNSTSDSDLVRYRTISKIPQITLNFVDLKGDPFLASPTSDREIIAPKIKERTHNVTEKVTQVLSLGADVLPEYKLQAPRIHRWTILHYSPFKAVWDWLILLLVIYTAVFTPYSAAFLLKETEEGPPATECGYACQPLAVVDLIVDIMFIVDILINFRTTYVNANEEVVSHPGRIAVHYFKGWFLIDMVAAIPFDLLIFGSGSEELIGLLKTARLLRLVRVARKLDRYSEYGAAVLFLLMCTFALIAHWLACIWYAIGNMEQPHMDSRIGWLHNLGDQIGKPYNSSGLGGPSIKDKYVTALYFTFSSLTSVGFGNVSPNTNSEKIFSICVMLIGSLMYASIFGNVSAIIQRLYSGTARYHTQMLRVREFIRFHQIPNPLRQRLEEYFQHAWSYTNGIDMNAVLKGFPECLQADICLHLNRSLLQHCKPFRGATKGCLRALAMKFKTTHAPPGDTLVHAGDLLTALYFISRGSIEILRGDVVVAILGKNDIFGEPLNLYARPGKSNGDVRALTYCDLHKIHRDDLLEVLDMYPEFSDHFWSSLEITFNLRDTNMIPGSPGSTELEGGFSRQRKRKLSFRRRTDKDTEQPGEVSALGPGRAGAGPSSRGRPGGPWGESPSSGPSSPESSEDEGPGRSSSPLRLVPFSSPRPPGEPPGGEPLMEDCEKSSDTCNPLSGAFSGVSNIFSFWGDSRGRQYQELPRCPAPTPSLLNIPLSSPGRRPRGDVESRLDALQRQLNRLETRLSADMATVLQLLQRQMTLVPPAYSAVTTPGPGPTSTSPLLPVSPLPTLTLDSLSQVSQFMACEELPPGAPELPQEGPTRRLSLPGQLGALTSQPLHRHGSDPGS

Compound	hERG current change (%, negative = inhibition) at 10uM [%]
COc1ccccc1OCCNC(=O)C1CCCCC1	28.8
COc1cc(Cl)ccc1OCc1cc(C(=O)N(C)Cc2nnc(C)o2)no1	-1.17
COC(=O)c1ccc(NC(=O)c2ccc(NC(=O)C3CCCO3)cc2)cc1 (stereo not shown)	-27.6
Cc1cccc(NC(=O)CN2C(=O)CNC2=O)c1	5.3
CC1(C)CC(=O)/C(=C\c2cccc([N+](=O)[O-])c2)C(C)(C)N1	0.874
COc1ccc(N(CC2CO2)S(=O)(=O)c2ccc(C)cc2)cc1 (stereo not shown)	6.32
CC(C)(C)NC(=O)CN(Cc1ccc(F)cc1)C(=O)Cn1nnc(-c2ccc(F)cc2)n1	13.1
Cc1cccc(OCCCC(=O)N2CCCCCC2)c1C	11.4
Cc1nn(-c2ncc(C(F)(F)F)cc2Cl)c(=O)n1-c1ccccc1F	6.41
COc1cccc(C(=O)Nc2nc3ccccc3s2)c1	4.88
O=C(c1ccccc1Cl)N1CCC(O)(c2cccnc2)CC1	1.99
CCOc1ccc(N(C(=O)CNS(=O)(=O)c2ccccc2)C(CC)C(=O)NCc2ccco2)cc1 (stereo not shown)	-15.2
CCOc1ccc(Cc2c(Cl)nc(N)nc2Cl)cc1	9.57
CCCC(NC(=O)c1ccccc1)c1nc2ccccc2n1Cc1ccc(C(=O)OC)o1 (stereo not shown)	-22.9
COc1cccc(C(=O)NC2CCN(CC(=O)Nc3c(C)cc(C)cc3C)CC2)c1	-6.27
CC1CCN(S(=O)(=O)c2ccc(NC(=O)C3CC(=O)N(c4ccccc4)C3)cc2)CC1 (stereo not shown)	14.8
O=C(CCn1nnc2ccccc2c1=O)N[C@@H](Cc1c[nH]c2ccccc12)C(=O)O	14.4
O=C(NCCc1ccc(Cl)cc1Cl)c1cncc(Br)c1	-1.57
O=c1[nH]c(=O)n(Cc2ccccc2)c2nc(-c3cccs3)n(CCO)c12	14.3
CCN1CCCC1CNC(=O)Cn1nc(C)n2c(cc3cc(F)ccc32)c1=O (stereo not shown)	5.18
O=C(COC(=O)C1CCC1)NCc1ccc(F)cc1	13.1
CC(C)COC(=O)n1ccc(C(=O)N2CCCCC2)n1	-1.97

Compound	hERG current change (%, negative = inhibition) at 10uM [%]
COc1ccc(Cc2nc3ccc(C(=O)NCc4ncc(C)[nH]4)cc3o2)cc1OC	-2
COc1cc(-n2c(C)nc3cc(C(=O)O)ccc32)cc(OC)c1OC	27.1
CCCS(=O)(=O)N1CCC(C(=O)N2CCCC2)CC1	10.1
COC(=O)c1ccc(Cn2cnc3c(cnn3-c3ccc(C)c(C)c3)c2=O)o1	-3.62
COc1ccc(OC)c(CCNC(=O)CCCC(=O)n2ncc3cc(C)ccc32)c1	-10
O=C(Nc1ccc2c(c1)OCCO2)C1CCN(C(=O)c2ccccc2)CC1	5.84
Cc1c(Cl)cccc1NC(=S)N1CCN(c2ncccn2)CC1	20.2
CCOc1cccc(/C=N/NC(=O)c2cc(-c3cccn3C)n[nH]2)c1O	-9.59
CC(C)(C)n1cnc2cc(NC(=O)c3ccco3)ccc21	-2.57
O=C(Cc1c(F)cccc1Cl)Nc1ccc(S(=O)(=O)N2CCOCC2)cc1	-6.1
O=C(CCCc1cccs1)Nc1ccc2c(c1)OCO2	1.78
Cn1cc(Br)c(C(=O)NN2C(=O)C3C4C=CC(C5CC45)C3C2=O)n1 (stereo not shown)	37
CN(C)S(=O)(=O)c1ccc(NC(=S)NC(=O)c2cccs2)cc1	8.97
O=[N+]([O-])c1cccc(/C=N/n2cnnc2)c1O	2.93
O=C(O)/C=C\C(=O)O.c1ccc2c(c1)CC1CNCc3cccc(c31)S2 (stereo not shown)	-49.5
CC(C)(C)NS(=O)(=O)c1ccc(NC(=O)CS(=O)(=O)Cc2ccccc2)cc1	10.5
CCNc1nc(Oc2c(Cl)cccc2Cl)cc(C(F)(F)F)n1	2.33
O=C(O)CC(C(=O)NC1CCCCC1)C1CCCO1 (stereo not shown)	-2.25
CC1CCN(c2ccc(N3C(=O)C4CCCCC4C3=O)cc2[N+](=O)[O-])CC1 (stereo not shown)	24.5
CC(=O)c1ccc(N2CCN(C(=O)c3cc(-c4ccncc4)nc4ccc(Cl)cc34)CC2)cc1	-33
CCOC(=O)C1=C(CC)Nc2ccccc2N=C1NC(=O)c1cc(C)on1	-15.5
Cc1c(C)c2c(OCC(=O)Nc3ccc(CCO)cc3)cc3c(c2oc1=O)CCC(C)(C)O3	-2.15

Compound	hERG current change (%, negative = inhibition) at 10uM [%]
COc1cccc(C(=O)OCCCOC(=O)c2cccc(OC)c2OC)c1OC	-1.34
Cc1cnc(C(=O)N2CCCC(N3CCN(c4ccccc4C)CC3)C2)cn1 (stereo not shown)	1.27
CCOCCn1c(CN2CCCCC2)nc2c1c(=O)n(C)c(=O)n2C	14.1
COC(=O)C1C(c2ccccc2)NC(=O)NC1(O)C(F)(F)Cl (stereo not shown)	-7.77
O=C(O)COc1ccccc1/C=N/NC(=O)c1cc(-c2ccc(Cl)cc2)nc2ccccc12	6.35
Cc1ccccc1NC(=O)Cn1nnc(-c2ccc(N3CCOCC3)cc2)n1	0.44
O=C(O)C1=C[C@H](C2CC2)C[C@H](OCc2ccc(CO)cc2)O1	13.8
C=CCn1c(CCC)nc2ccccc21	8.63
C=C(Br)Cn1c(CCC)nc2ccccc21	-2.23
COC(=O)c1c(-c2ccc(C)cc2)csc1NC(=S)NC(=O)c1cc(OC)cc(OC)c1	27.1
CC(CN1CCCC(C(N)=O)C1)c1ccccc1 (stereo not shown)	12.5
COc1ccc(-n2c(N)c(C(=O)NCc3ccco3)c3nc4ccccc4nc32)cc1OC	16.7
COCCn1nnnc1CN(CCc1ccccc1)Cc1cc2cc(OC)ccc2[nH]c1=O	-47.8
COc1ccc(OC)c(NC(=O)C2CCN(S(=O)(=O)c3ccc4c(c3)OCCO4)CC2)c1	5.03
Cc1cccc(NC(=O)CCCN2C(=O)c3cccc4cccc(c34)C2=O)c1	-3.34
Cc1nn(-c2ccccc2)c(Cl)c1C(=O)OCC(=O)NCCc1ccccc1	-32.7
CC(C)CN(C(=O)COc1ccc(Br)cc1C=O)C1CCS(=O)(=O)C1 (stereo not shown)	-25.4
O=C(NC1CCCC1)C(c1ccncc1)N(Cc1ccccc1)C(=O)Cc1cccs1 (stereo not shown)	-14.1
O=C(c1cccs1)[C@@H]1[C@@H]2C(=O)N(Cc3ccc4c(c3)OCO4)C(=O)[C@@H]2C2c3ccccc3C=CN21 (stereo partly shown)	-26.7
O=c1oc2ccccc2c2[nH]ccc12	14.5
CC1=CC(C)C2COC(c3ccc[n+](C)c3)C1C2C.[I-] (stereo not shown)	14.3
CCOC(=O)Cc1nnc(NC(=O)C(CC)Sc2nncn2C)s1 (stereo not shown)	5.89

Compound	hERG current change (%, negative = inhibition) at 10uM [%]
CCN(CC(=O)Nc1ccc2c(c1)OCCO2)C(=O)CC(NC(C)=O)c1ccccc1 (stereo not shown)	18.7
CS(=O)(=O)c1ccc(Cl)c(NC(=O)CCNC(=O)c2ccco2)c1	5.42
COc1ccccc1NC(=O)c1cc2ccccc2o/c1=N\O	-4.95
COCCCNC(=O)CN(c1cc(Cl)cc(Cl)c1)S(C)(=O)=O	3.18
CC1=C(C(=O)N2CCOCC2)C(c2cc(C)ccc2C)NC(=S)N1 (stereo not shown)	15
COc1ccc(C2N3CC4(C)CN2CC(C)(C3)C4O)cc1 (stereo not shown)	1.98
O=C(O)c1cc(-c2cccc([N+](=O)[O-])c2)n[nH]1	-0.826
CC1=CC(C)C(COC(N)=O)(COC(N)=O)C(C)C1 (stereo not shown)	-16.2
O=C(N/N=C/c1c(Cl)cccc1Cl)c1ccccc1F	-0.87
COc1ccc(C(=O)N(C)C2CCN(C)CC2)cc1S(=O)(=O)Nc1cc(Cl)ccc1Cl	-3
CC/C(=N\NC(=O)Cc1ccc(Br)cc1)c1cccs1	14.4
Cc1cc(C)cc(NC(=O)C2CCCN(c3nc(C)cc(C)n3)C2)c1 (stereo not shown)	-0.397
CS(=O)(=O)Cc1ccc(C(=O)NC2CCN(Cc3ccccc3)C2)cc1 (stereo not shown)	-5.28
O=C1/C(=C\Nc2ccc(OC(F)(F)F)cc2)CCN1c1ncccn1	-8.68
CCOC(=O)C1(O)CC(C)=NN1C(=O)c1cccc(Br)c1 (stereo not shown)	25.9
O=C(Nc1ccc2c(c1)OCO2)C1CC(c2ccc(F)cc2)=NO1 (stereo not shown)	13.4
COc1ccc(CNC(=O)C(OC(=O)c2ccco2)c2ccc(OC)cc2)cc1 (stereo not shown)	8.14
Cc1cccc(N=C2NC(=O)/C(=C3/C(=O)N(C)c4ccccc43)S2)c1C	-3.46
CS(=O)(=O)ON=C1CCN(S(=O)(=O)c2ccccc2)CC1	12
CCN(CC(=O)NCc1ccc2c(c1)OCO2)S(=O)(=O)c1ccc(F)cc1	-28.8
Cc1cccc(NC(=O)c2ccc(-c3ccccc3[N+](=O)[O-])o2)c1	-55.2
CCOc1ccc(/C=N/NC(=O)Nc2ccccc2)cc1	11.4
